From the RNAGym collection of RNA variant scans (doi:10.7554/elife.90254) come the findings set out here.

Read counts are not given, so values of variants with three or more changes are uncertain.

Sequences and labels used below:
B1: LINE1-mini (parent)
chain: GGCAGAGCUCAACACAGCGUGGCAAAGUGGCUGUGGCUAGACUGCC

In the data set the parent is B1. The experiment in a line: self-cleavage, relative activity (ratio to wild type); higher = more cleavage; in vitro, sequencing; the parent is a self-cleaving ribozyme.
Take C10G A11U G35A G36A C37U C42U G44A: the self-cleavage came to 0.
As for C10U A12C A14U G44C, the self-cleavage turned out to be 0.02.
The same measure for C10A U20A C31G G40A: 0.03; for C10A G36U U43A: 0.
With C10G C23G G35A C46A, the self-cleavage was determined as 0.02.
C10G C18U G36U: the self-cleavage came to 0.02.
On to C10G C18A C23A A24C G35C C37U, for which the self-cleavage amounted to 0.03.
C10U A11U A16U C46U: the self-cleavage came out at 0.04.
On to C10G C45G C46A, for which the self-cleavage stood at 0.05.
With C10G G19C G44U C45G, the self-cleavage came to 0.
In the case of C10A U20A G22A U32C, the self-cleavage turned out to be 0.02.
Regarding C10A U32G G35U, the self-cleavage was 0.01.
For C10G U20A U34G, the self-cleavage was 0.04.
For the variant C10G A11C C15U A24G C37A A39G, the self-cleavage was 0.01.
The same measure for C10G U38C C45A: 0.01; for C10G G22A A41G: 0.01.
As to C10A U38A G40U C42U C45U, the self-cleavage amounted to 0.
The figure for C10G G33U G36C U38C C46U is 0.01.
Take C10G A16C G30U G40C C45U: the self-cleavage was determined as 0.
The figure for C10G A14G A16G C18G U20C A26G G30U is 0.01; for C10A U28C G36U G40U it is 0.
In the case of C10G G17A C31G U34G, the self-cleavage is 0.01.
The same measure for C10G A16C G21U C46G: 0.02; for C10A U28G C31A: 0.03.
Regarding C10A U28G G36A, the self-cleavage worked out at 0.02.
On to C10G A39U A41C, for which the self-cleavage amounted to 0.02.
As to C10G G21U U28A, the self-cleavage turned out to be 0.05.
C10G C18U G29A G44C: the self-cleavage is 0.18.
The same measure for C10A U34A G40U: 0.04; for C10G G29U C31U C46G: 0.04; for C10A U38G C45A: 0.03.
Consider C10A U20A G21A C45A C46G, for which the self-cleavage is 0.01.
On to C10G A12G A14G G19C C23A U34A, for which the self-cleavage was determined as 0.
For C10G A24G G33A U38C C46G, the self-cleavage was found to be 0.
As for C10G G27U C37U G40A, the self-cleavage came to 0.01.
The figure for C10A U32A U38C A39G A41U is 0.02; for C10U A11U A12C G27C G30C U32G it is 0; for C10U A11C G19U it is 0.03.
Turning to C10G G19C C23A, the self-cleavage was determined as 0.03.
Consider C10G G22U C31A G44A, for which the self-cleavage was determined as 0.01.
With C10G C18G A24C C46A, the self-cleavage was determined as 0.02.
For C10G G21C G30C G36C U38G, the self-cleavage turned out to be 0.01.
C10G G21A G29A: the self-cleavage amounted to 0.06.
Consider C10U A11G G36U, for which the self-cleavage was found to be 0.02.
As to C10G G33A U43A, the self-cleavage is 0.02.
On to C10G C18G C37A C42A, for which the self-cleavage is 0.
Consider C10G A12G G30C C31U, for which the self-cleavage amounted to 0.
C10G G22U C42A: the self-cleavage amounted to 0.02.
C10G C13G A14C: the self-cleavage worked out at 0.02.
The same measure for C10G A16C G27C C42A: 0.01; for C10G G22A G33C G35U C37A: 0.02.
For the variant C10G G21U U43G, the self-cleavage stood at 0.01.
The figure for C10G A11U C18U A25U G29U A39U is 0.02; for C10G C13A A14C G40C G44U it is 0.01.
In the case of C10G G19A G29C U38G G44C, the self-cleavage came out at 0.02.
Turning to C10G G22U G35A C37G U38G, the self-cleavage stood at 0.01.
As for C10G A41U G44U, the self-cleavage was 0.05.
As to C10G C18G G21U, the self-cleavage was determined as 0.08.
Take C10G G30C C31A: the self-cleavage turned out to be 0.13.
As to C10G C15U C45A, the self-cleavage is 0.03.
In the case of C10U A11G C15A C18G G19U G35C, the self-cleavage was determined as 0.01.
As for C10G A11C G19C C37A, the self-cleavage stood at 0.01.
As for C10G C13A G44U, the self-cleavage was 0.01.
C10A U20G A24U G44C: the self-cleavage came out at 0.01.
Turning to C10A U20A U38C, the self-cleavage was determined as 0.12.
As to C10G A11U C23A G30C, the self-cleavage stood at 0.03.
Consider C10U A12C A16U, for which the self-cleavage is 0.06.
Regarding C10G G27C C31A C45A, the self-cleavage was determined as 0.02.
With C10G A16G U20A A26G C37U G40U C42U C45U, the self-cleavage was 0.
With C10G A26U A41G, the self-cleavage worked out at 0.01.
As to C10G G27C G29C, the self-cleavage came out at 0.51.
On to C10G G21C G29A, for which the self-cleavage came out at 0.05.
Turning to C10G A25U U34C, the self-cleavage is 0.06.
Consider C10G C15A C18A G27U, for which the self-cleavage came to 0.02.
For C10U A11G C23U G29C, the self-cleavage was determined as 0.01.
On to C10G G22U A26U G29U G40C, for which the self-cleavage came out at 0.01.
For the variant C10G C15U U43A, the self-cleavage is 0.03.
Take C10G A16U G22A G27U U34A: the self-cleavage was found to be 0.02.
Turning to C10G C31A C46A, the self-cleavage was 0.04.
Turning to C10G G30U G33U G36C G40U, the self-cleavage is 0.01.
As to C10U A11U G21C G27U, the self-cleavage came out at 0.03.
C10A U20C A24G: the self-cleavage is 0.03.
The same measure for C10G G17A A24U G40A: 0.03; for C10G G27C C31A: 0.02.
In the case of C10G G29U U32C, the self-cleavage was found to be 0.03.
The figure for C10U A11G C13G G17A G29U is 0.02.
For the variant C10U A11G A41C, the self-cleavage amounted to 0.01.
In the case of C10A U20C A24C A26C, the self-cleavage worked out at 0.4.
The same measure for C10G A14C G17C G44U: 0; for C10G G22U G33A: 0.08.
As for C10G C23U G27C G29U, the self-cleavage was 0.05.
C10U A11G A25G G35A: the self-cleavage was 0.01.
On to C10A G44U C45U, for which the self-cleavage came out at 0.01.
On to C10G G36U C37U, for which the self-cleavage was found to be 0.03.
The same measure for C10G G40U C42A: 0.
Consider C10G G22A G40C, for which the self-cleavage was determined as 0.01.
For C10G A24C G33C, the self-cleavage was 0.03.
Take C10A U28A G30C A41G: the self-cleavage is 0.01.
With C10G G19C G21U G44U, the self-cleavage came out at 0.01.
Turning to C10G G22C C46G, the self-cleavage came to 0.01.
As for C10G A12C G36U G40C C45A, the self-cleavage was determined as 0.01.
For the variant C10G A26G G30C, the self-cleavage stood at 0.16.
As to C10A G44C C45U, the self-cleavage worked out at 0.02.
With C10G U32A A39G, the self-cleavage is 0.
The same measure for C10G A24G G33U G36A: 0.01; for C10G G29U C37A: 0.
Regarding C10G C31G C37G C45A, the self-cleavage is 0.
Take C10G A11G A12C G33C C45U: the self-cleavage came out at 0.01.
The same measure for C10G C31U G33A: 0.03; for C10G C23A U32C U34G C45A: 0.01; for C10G A26G U38G U43A: 0.
Take C10G G30A C46A: the self-cleavage is 0.35.
In the case of C10G C23U A25G G36A U38A A39C C42G, the self-cleavage came out at 0.01.
Regarding C10G A16U C42U, the self-cleavage is 0.01.
For C10G A16C C46A, the self-cleavage came out at 0.02.
As for C10G C23G C46G, the self-cleavage was determined as 0.03.
As to C10G A16G C18A U28C C42U C46G, the self-cleavage was determined as 0.
Regarding C10G C15U G30U C37U, the self-cleavage turned out to be 0.
The same measure for C10G U32A U38A G40U A41U: 0; for C10G G22A A41U C45U: 0.05; for C10G A12U A14U C18A U28G G40U: 0.
In the case of C10G A11G G44C C46U, the self-cleavage is 0.01.
The same measure for C10G C15A C18U A26C C31A: 0.04; for C10G G19C A41C: 0.02.
As to C10G G17A A26G U34A C45U, the self-cleavage turned out to be 0.01.
Take C10G G36C C42U C45U: the self-cleavage came to 0.03.
As for C10G C13U U20A C23A G36U U43C, the self-cleavage amounted to 0.
Regarding C10G A24C C31U, the self-cleavage is 0.05.
The figure for C10G A24C G44A is 0.02; for C10G C15A C46U it is 0.05; for C10G G17A A41C it is 0.03.
The same measure for C10U A11U A12G C18G G35A: 0.01; for C10A U20G G21U C46G: 0.06.
Consider C10G G33C A39U U43G, for which the self-cleavage stood at 0.01.
Regarding C10G A16U G17U A25G, the self-cleavage is 0.03.
For the variant C10U A11G A14G, the self-cleavage came to 0.
For the variant C10G C15A U32C, the self-cleavage was found to be 0.01.
Regarding C10G A12G A26G G30U U34A C37U, the self-cleavage was 0.01.
The figure for C10G A14C G17U G19U is 0.01.
Take C10A U20C U28A: the self-cleavage is 0.03.
With C10U A11U A14U G21C C37G G44C C45U, the self-cleavage stood at 0.01.
For C10G G36A C42U U43C, the self-cleavage was 0.01.
The figure for C10G C13G U20C G21A U32C A41U is 0.02.
Regarding C10G C23A C45U, the self-cleavage is 0.11.
The figure for C10A U28C G29A is 0.03; for C10A U28C G29C it is 0; for C10G A16G G21A it is 0.21.
Regarding C10G A16G G21U, the self-cleavage was found to be 0.04.
On to C10G C15U G19A, for which the self-cleavage stood at 0.03.
As for C10A U28A A39U, the self-cleavage was found to be 0.15.
As to C10G C31G A39U C46G, the self-cleavage is 0.02.
The same measure for C10A U38C G44A: 0.25; for C10A U34G C46A: 0.02.
The same measure for C10G A12U G40A: 0.03; for C10A G44A C46A: 0.06; for C10G A11G U28C G35C: 0.
As to C10G A12G A14G G17C, the self-cleavage turned out to be 0.01.
In the case of C10U A11C A14C A26G U32A, the self-cleavage amounted to 0.02.
As for C10G G21A U32A U34A, the self-cleavage came out at 0.02.
In the case of C10A U20C C37A, the self-cleavage was determined as 0.
The same measure for C10G G27A G40U A41G: 0.01; for C10G G19C G29U: 0.12.
The figure for C10G A11C G19C C23A G30C is 0.02.
On to C10G C18G G30A, for which the self-cleavage is 0.15.
Turning to C10G U28C G29U U34G, the self-cleavage worked out at 0.03.
With C10G G19A G36C A41U, the self-cleavage came out at 0.01.
The same measure for C10G G21A C23U A24G A26C: 0.22.
